The source gives no read counts; variants with many changes may rest on few reads.
B1: LINE1-mini (parent)
chain: GGCAGAGCUCAACACAGCGUGGCAAAGUGGCUGUGGCUAGACUGCC

Variants of: B1
Assay: self-cleavage, relative activity (ratio to wild type); higher = more cleavage; in vitro, sequencing; the parent is a self-cleaving ribozyme

Variant | self-cleavage
GGAAGAGCUCAACACAGCGUCGCAAAGUGGGUGUGAUUGGAGUGCC [C3A G21C C31G G36A C37U A39G C42G] | 0.03
GUCAGAGCUCAACACAGCGUGGCAUAGUGGCUGUGGCUAGACUGGU [G2U A25U C45G C46U] | 0.27
GGCACAGCUCAACACAGCGUAGCUAAGUGGCUGUGGCUAGACUGCC [G5C G21A A24U] | 0.05
GACAGAGCUCAACACAGCGUGGCAUAGUAGCUGUGGCUAGCCUGCC [G2A A25U G29A A41C] | 0.31
GGCAGAGCUCAACACAGCGUGGAAAAGUUUCUGUGGCUAGCCUGGC [C23A G29U G30U A41C C45G] | 0.03
GGCAGAGCUCAACACCGCGUGGCAAAGUGGCUGAGGCUAGACUGAC [A16C U34A C45A] | 0
GGCAGAGCUCAACACAGCGCGGCAAAGUGGCUGUGACUAGAUUGCC [U20C G36A C42U] | 0.02
GGCAGAGCUCAACACAGCGCGGCAAAGGGGCUGUGGGUAGAGUGCC [U20C U28G C37G C42G] | 0.01
GGCAGUGCUCAACACAGUGUCGCAAGGUGGCUGUGGCUAGACUGCC [A6U C18U G21C A26G] | 0.62
GGCAGAGCUCAGCAAAGCGUUGCAAAGUGGCUGUGGCUAGACUGCC [A12G C15A G21U] | 0.04
GGCAGAGCACAACUCAGCGUGGCAAAGUAGCUGUGGCUAAACUGCC [U9A A14U G29A G40A] | 0.13
GGCAGAUCUCAACACAGCGUGGAAAAAUGGCUGUGGAUAGACUGCC [G7U C23A G27A C37A] | 0.01
GGCAGAGCGCAACACAGCGUGGCAAAGUGGCUGUGUCUUGACUGCC [U9G G36U A39U] | 0.18
GGCAGAGAUCAAAACUGCGUGGUAAAGUGGCUGUGGCUAGAGUGCC [C8A C13A A16U C23U C42G] | 0.11
GGCAGAGCUCAACACAGCGUUGCAGGGUGGCUGUGGCUAGACUGCC [G21U A25G A26G] | 0.11
GGCAGAGCUCUACACAGCGUGGCAAAGUAGCUCUGGCUAGACUGCC [A11U G29A G33C] | 0.01
GGCAGUGUUCAACUCAGCGAGGCAAAUUGUCUUUGGCUAGAGUGCC [A6U C8U A14U U20A G27U G30U G33U C42G] | 0.29
GGCCGGGCUCAACACAGCGUGGCAAAGUGCCAGUGGCUAGACUGCC [A4C A6G G30C U32A] | 0.03
GGAAGAGAUCAACACGGCGUGGCAAAGCGGCUGUGGCUAGAUGGCC [C3A C8A A16G U28C C42U U43G] | 0.17

Variant | self-cleavage
GGCAGAGCGCAACACAGCGUGGCAAACUGGCUGUGGUUAGACUGUC [U9G G27C C37U C45U] | 0.02
GGCAGAGCUCAUCACAGCGUGGCAAAGUGGCUGUGGCUAGAGUACC [A12U C42G G44A] | 0.03
AGCUGAGCUCAACACAGCGUGGCAAAGUGGCUGUGGCUAGACUGAC [G1A A4U C45A] | 0.15
GGCAGAGCUAAACACAGCAUGUCAACGUGGCUGUGGCUAGCCUGAC [C10A G19A G22U A26C A41C C45A] | 0.02
GCAACAGCUCAACACAGCUUGGCAAAGUGGCUGUGGCUAGACUGCC [G2C C3A G5C G19U] | 0.06
GGGAGAGCUCAACACAGCGUGGAAAAGUGGCUGUGGCUAGACUGGC [C3G C23A C45G] | 0.22
GACUGAGCUCAACACAGCGUGGCAAAGUGGCCGUGGCUAGACUGCC [G2A A4U U32C] | 0.12
GGCAGAUCUCAACACAGGGUGGCACAGGGGCUGUGGGUAGACCGCC [G7U C18G A25C U28G C37G U43C] | 0
UGCAGAGCUCAACACAGCGUGGCAAAGUGGCUGUGGCUUGACUGUC [G1U A39U C45U] | 0.1
GGCAGAGCACAACACAGCGUGGCAAAGGGGCUGUGGCUCAACUGCC [U9A U28G A39C G40A] | 0.04
GGCAGAGUUACACACAGCGUGGCAAAGUGGCUGUGGCUAGACUGCC [C8U C10A A11C] | 0.04
GGCAGAGCUCAACACAGCGUGGCAAAGUAGCUGUGACUAGAAUGCC [G29A G36A C42A] | 0.02
GGGAGAGCUAAACACAGGGUGGCAAAGUUGCUGUGGCUAUACUGCC [C3G C10A C18G G29U G40U] | 0.02
GGCAGGGCUCAACAUAGCGUGGCAAAGUGGCUGUUGCUAGACUGAC [A6G C15U G35U C45A] | 0
GGUAGAGCUCAACAUAGCGGGGUAAAGUCGCUGUGGCUAGACUGCC [C3U C15U U20G C23U G29C] | 0.85
GGCAGAGCUCAACACAGCGUGGCAAUGUGCUUCUGGCUAGACUGCC [A26U G30C C31U G33C] | 0.05
AGCAUAGAUCAACACAGUGUGGCAAAGUGGCUGUGGCCAGACUGCC [G1A G5U C8A C18U U38C] | 0.15
GGCAGUACACAACACAGCGUGGCAAAGUGGCUGGGGCUAGACUGCC [A6U G7A U9A U34G] | 0.05
GGCAGAUCUCCACACAGCGUGGCCAGCUGGCUGUGGCUACACUGAC [G7U A11C A24C A26G G27C G40C C45A] | 0

Variant | self-cleavage
GGGAGAGCUCAAUAGAGCGUGGCAAAGUGGCUGUGGCUAGACUGCC [C3G C13U C15G] | 0.03
GGCAGAGCUCAAUACAGCGUUGCAAAGUGGCUGUGGCGAGACUGCC [C13U G21U U38G] | 0
GCCAGAACUCCGCACAGCGUGGCAAAGUGGCUGUGGCUAGACUGCC [G2C G7A A11C A12G] | 0.07
GGCAGAGCUCAAUACAGCGUGGCAAAGUGGCUGUGGCUAGGAUGCC [C13U A41G C42A] | 0.07
GGCAGCGCGCAACACAGCGUGGCAAAGUGGGUGUGGCUAGACUGGC [A6C U9G C31G C45G] | 0
GGCAGAUCUCAGCACAGUGUAGCAAAGUGGCUGUGGCAAGACUGCC [G7U A12G C18U G21A U38A] | 0.02
AGCAGAGCUCAACACAGAGUGGCAAAGUGGCUGUGGCUAGACUGCU [G1A C18A C46U] | 1.83
GGCAGAGCUCAACGCAGCGUGGCAAAGUGGCUUUGGCUAGACCGCC [A14G G33U U43C] | 0.04
GGCCGAGUUCAACACAGCGUGGCAAAGUGGCUGUGGCUAGAGUGCC [A4C C8U C42G] | 0.3
GGCAGUGCUCAAUACAGCGUGGAAAAGUGGCUGUGGAUAGACUGCC [A6U C13U C23A C37A] | 0.07
GGCAGAGCUUAAUACAACGGGGCAACGGGGCUGUGGCUAGACUGCC [C10U C13U G17A U20G A26C U28G] | 0.03
GGCAGAUCUCAAUACAGCGUGGCAAAGUGGAUGUGGCUAGACUGCC [G7U C13U C31A] | 0.3
GGCAGAGCCCAACACAUCUUAGCAAAGUAGCUGUGGCUAGACUGCC [U9C G17U G19U G21A G29A] | 0.02
GGCAGAGCUCAACACAGCGUGUCAAUGUGGCUGUGGAUAGACUGCC [G22U A26U C37A] | 0.02
GGCAGAUCUGAACACAGCGUGGCAAAGUGACUGUGGCUAGACUGCC [G7U C10G G30A] | 0.01
GGCAGAGCUCAACACAGCUUGGCAAAGUGACUGAGUCUAGACUGCC [G19U G30A U34A G36U] | 0.04
GGCAGAGCUCCAUACAACGUGGCAAAUUGGCUGUGCCAAGACCGCC [A11C C13U G17A G27U G36C U38A U43C] | 0.02
GGCAGAGCUAAAUACAGCGUGGCAAAGUUGCUGUUGCUAGACUGCC [C10A C13U G29U G35U] | 0.03
